Data: PubChem BioAssay AID588579 (National Center for Advancing Translational Sciences (NCATS), 2011)
“And” between values parts separate entries of the source, which are not always exact repeats. Equal entries are not always repeated. Screen size: about 400,000 compounds; about 2,200 (0.55%) were called active. Inconclusive results, whose numbers are uncertain, are shown with a selection of clear calls. Calls come from the whole dose curve; as a rule, active = well fitted inhibition curve with a large enough effect; inconclusive = small, poorly fitted or top-dose-only effect, or another doubt; inactive = no such curve, though single readings can be large or run the other way. Where the call is inconclusive, the potency comes from a doubtful curve fit.

target: DNA polymerase kappa (Homo sapiens) (UniProt Q9UBT6); assay: qHTS for Inhibitors of Polymerase Kappa; details: purified Pol kappa, fluorescent DNA synthesis assay, 10 min; series mostly up to 107 µM; activity, negative = inhibition: at the top concentration
Chain of UniProt Q9UBT6 (Q9UBT6 whole entry, looked up): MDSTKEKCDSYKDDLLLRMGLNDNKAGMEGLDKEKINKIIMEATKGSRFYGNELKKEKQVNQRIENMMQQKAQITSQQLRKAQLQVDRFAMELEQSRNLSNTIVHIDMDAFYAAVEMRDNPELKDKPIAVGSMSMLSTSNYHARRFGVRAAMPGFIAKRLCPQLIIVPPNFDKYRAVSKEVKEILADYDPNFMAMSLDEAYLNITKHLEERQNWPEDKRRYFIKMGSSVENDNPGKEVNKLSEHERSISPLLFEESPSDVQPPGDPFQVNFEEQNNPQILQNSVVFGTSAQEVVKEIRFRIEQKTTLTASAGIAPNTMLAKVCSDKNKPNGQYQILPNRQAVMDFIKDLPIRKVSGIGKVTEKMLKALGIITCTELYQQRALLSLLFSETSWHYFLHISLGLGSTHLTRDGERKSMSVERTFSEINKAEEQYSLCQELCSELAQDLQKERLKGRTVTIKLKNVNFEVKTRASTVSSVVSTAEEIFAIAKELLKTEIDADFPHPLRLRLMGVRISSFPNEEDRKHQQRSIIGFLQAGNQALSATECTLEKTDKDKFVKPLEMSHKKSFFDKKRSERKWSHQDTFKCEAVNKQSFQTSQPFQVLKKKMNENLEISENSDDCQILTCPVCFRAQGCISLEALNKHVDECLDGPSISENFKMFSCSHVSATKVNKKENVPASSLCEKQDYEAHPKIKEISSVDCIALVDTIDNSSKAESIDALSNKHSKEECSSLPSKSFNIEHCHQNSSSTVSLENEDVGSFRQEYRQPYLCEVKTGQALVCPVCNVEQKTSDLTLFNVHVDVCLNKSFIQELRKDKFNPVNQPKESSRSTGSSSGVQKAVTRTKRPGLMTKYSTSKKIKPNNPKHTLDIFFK
In short: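 Readout: fluorescence, taken kinetically at 0 and 10 min. Conditions: 10 nM Pol kappa, 15 min RT compound preincubation, 50 nM substrate final. Controls: enzyme-free buffer wells.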
% is set by controls: 0 for no effect and ±100 for the full control effect; potency is the fitted concentration of half-maximal effect; tags give direction and shape of the fitted curve.

Compound | Potency | activity, negative = inhibition
CC(C)=CCOc1cc2oc(=O)ccc2cc1O | inconclusive: 28.2 µM [inhibitor, partial curve] | 
Cc1ccc(NC(=O)C2CCN(S(=O)(=O)c3cc([N+](=O)[O-])ccc3Cl)CC2)nc1 | inconclusive: 79.4 µM [inhibitor, single point] | 
CCOc1ccc(C2C(C#N)=C(N)SC(N)=C2C#N)c(OCC)c1 |  | inactive: -0.326%
CCNc1ccc(Br)cc(C(=O)/C=C/c2ccc(Cl)cc2)c1=O | inconclusive: 70.8 µM [inhibitor, single point] | 
C=CCOC(=O)c1[nH]c2c(c1C)C(=O)CC(c1ccco1)C2 (stereo not drawn) | inconclusive: 56.2 µM [inhibitor, partial curve, poor fit] | 
COc1ccccc1-c1nn2c(=O)cc(CN3CCN(C(=O)Nc4ccc(C)cc4Cl)CC3)nc2s1 |  | inactive: -3.45% [at 60.1 µM]
CCOc1ccc(-n2c(=O)c3c(C)c(C)sc3n(CC(=O)C(C)(C)C)c2=O)cc1 |  | inactive: 5.16%
Cc1ccccc1C1=C/C(=C(\SS/C(C(=O)c2ccc(OCC(=O)O)c(Cl)c2Cl)=C2\C=C(c3ccccc3C)SS2)C(=O)c2ccc(OCC(=O)O)c(Cl)c2Cl)SS1 | active: 79.4 µM | 
COc1cc(/C=C/C(=O)CC(=O)/C=C/c2ccc(O)c(OC)c2)ccc1O | inconclusive: 26.7 µM [inhibitor, partial curve] and inconclusive: 89.1 µM [inhibitor, single point] | 
COc1ccc(-c2[nH]c(-c3ccc(O)cc3)nc2-c2ccccc2)cc1 |  | inactive: -21.8%
O=c1c(Oc2ccccc2F)coc2cc(OCc3cnn(-c4ccccc4)c3)ccc12 | inconclusive: 79.4 µM [inhibitor, partial curve, poor fit] | 
CCOC(=O)c1cc2c(=O)n3ccccc3nc2n(Cc2ccco2)c1=NC(=O)c1ccccc1Br | active: 89.1 µM | 
COc1ccc(CNC(=O)C[C@H]2C[C@H](C(=O)N3CCCCC3)[C@@]3(C)c4[nH]c5cc(-c6ccco6)ccc5c4CCN3C2=O)cc1OC | inconclusive: 70.8 µM [inhibitor, single point] | 
COc1cc(/C=N/NC(=O)COc2ccc(-n3cnnn3)cc2)ccc1OCC(N)=O | inconclusive: 89.1 µM [inhibitor, single point] | 
C[C@@H]1O[C@@H](O[C@H]2[C@H](O)[C@@H](O)[C@H](Oc3c(-c4ccc(O)c(O)c4)oc4cc(O)cc(O)c4c3=O)O[C@@H]2CO)[C@H](O)[C@H](O)[C@H]1O | inconclusive: 50.1 µM [inhibitor, partial curve, poor fit] | 
COc1ccccc1NC(=O)c1cc2ccc3cccnc3c2[nH]1 |  | inactive: -7.06% [at 60.1 µM]
C=CC1=C(C)C2=NC1=CC1=NC(=CC3=NC(=CC4=NC(=C2)C(C)=C4CCC(=O)O)C(CCC(=O)O)=C3C)C(C=C)=C1C.[Zn] | active: 3.55 µM | 
Cc1cccc(C2C3=C(Nc4[nH]n(-c5ccccc5)c(=O)c42)c2ccccc2C3=O)c1 (stereo not drawn) | inconclusive: 63.1 µM [inhibitor, partial curve, poor fit] | 
CN1C(=CC=C2C=C(I)C(=O)C(I)=C2)C(C)(C)c2ccccc21 | inconclusive: 3.98 µM [inhibitor, partial curve, poor fit] | 
COc1cccc(NC(=O)CC2NCCNC2=O)c1 (stereo not drawn) |  | inactive: -23.1%
CC(/C=C1\SC(=S)N(CCCC(=O)Nc2ccc(C(=O)O)c(O)c2)C1=O)=C\c1ccccc1 | inconclusive: 89.1 µM [inhibitor, single point] | 

Compound | Potency | activity, negative = inhibition
CCOc1ccc(N2C(=O)CS/C2=C(\C(Cl)=C(Cl)Cl)[N+](=O)[O-])cc1 | inconclusive: 89.1 µM [inhibitor, partial curve, poor fit] | 
O=C(Nc1ccc(S(=O)(=O)NCc2ccco2)cc1)c1cccc(F)c1 | inconclusive: 89.1 µM [inhibitor, partial curve, poor fit] | 
COc1ccc2nc(C)cc(N/N=C/c3cccc(OC)c3O)c2c1 | active: 79.4 µM | 
Cc1ccc(C(=O)NNC(=S)Nc2cccc(Cl)c2Cl)cc1[N+](=O)[O-] | inconclusive: 79.4 µM [inhibitor, partial curve, poor fit] | 
O=C(Nc1ccccc1Cl)c1ccc2nccnc2c1 | inconclusive: 89.1 µM [inhibitor, single point] | 
CCSC1=NC2(CCN(C(=O)NC3CCCCC3)CC2)N=C1c1ccc(Cl)cc1 |  | inactive: 0.627%
COC(=O)C1=C(C)N(Cc2ccccc2)C(=O)/C1=C\c1ccco1 | inconclusive: 70.8 µM [inhibitor, single point] | 
COc1cccc2sc3ccc(NCc4ccc5c(c4)OCO5)cc3c(=O)c12 | active: 79.4 µM | 
CCN(CC)c1ccc2cc(C(N)=O)/c(=N\NC(=O)c3ccncc3)oc2c1 | inconclusive: 22.4 µM [inhibitor, partial curve, poor fit] | 
O=C(CSc1nnc(Nc2ccccc2F)s1)NC(=O)CN1CCCC1=O | inconclusive: 89.1 µM [inhibitor, single point] | 
N[C@@H](Cc1cc(-c2ccc(Cl)cc2Cl)cc(CP(=O)(O)O)c1O)C(=O)O | active: 1.78 µM | 
CCN(CC)c1ccc(NS(=O)(=O)c2cc3[nH]c(=O)c(=O)[nH]c3cc2C)c(C)c1 | inconclusive: 89.1 µM [inhibitor, single point] | 
O=C(NC(=S)Nc1cccc(S(=O)(=O)NC2=NCCC2)c1)c1cc(-c2ccco2)nc2ccccc12 | inconclusive: 100 µM [inhibitor, single point] | 
N=C1/C(=C\c2coc3ccc(O)cc3c2=O)C(=O)N=C2SC=CN12 | inconclusive: 89.1 µM [inhibitor, partial curve, poor fit] | 
Cc1ccc(SCc2cc(=O)c3c(=O)n(-c4ccccc4)[nH]c3[nH]2)cc1 | inconclusive: 56.2 µM [inhibitor, partial curve, poor fit] | 
O=C(O)c1ccc(Nc2nc3ccccc3nc2NS(=O)(=O)c2cccs2)cc1 | inconclusive: 89.1 µM [inhibitor, single point] | 
Cc1nc2c(cc1C(=O)N/N=C/c1ccc(O)c(O)c1)c(=O)n(C)c(=O)n2C |  | inactive: -25.9%
Cc1ccccc1C(=O)OCc1cc(=O)n2nc(-c3cccs3)sc2n1 |  | inactive: -11.5%
COc1cccc(Cn2c(=O)c(-c3ccc(Cl)cc3)nc3cnc(N4CCNCC4)nc32)c1 | inconclusive: 28.2 µM [inhibitor, single point] | 
O=C(CSc1nc2ccccc2o1)c1ccc2c(c1)OCCO2 | inconclusive: 39.8 µM [inhibitor, single point] | 
CCOc1ccc(NC(=O)CN2CCCN(Cc3cc(C)ccc3C)S2(=O)=O)cc1 | inconclusive: 89.1 µM [inhibitor, single point] | 

Compound | Potency | activity, negative = inhibition
CN(C)[C@@H]1C(=O)C(C(N)=O)=C(O)[C@@]2(O)C(=O)C3=C(O)c4c(O)ccc(Cl)c4[C@@H](O)[C@H]3C[C@@H]12 | active: 89.1 µM | 
Cc1ccc(S(=O)(=O)Nc2ncnc3sccc23)cc1C | inconclusive: 89.1 µM [inhibitor, partial curve, poor fit] | 
O=C(NCc1ccccc1)C1CCN(S(=O)(=O)c2cc([N+](=O)[O-])ccc2Cl)CC1 |  | inactive: 1.44%
S=C(NCCCNC(=S)Nc1ccccc1)Nc1ccccc1 | inconclusive: 100 µM [inhibitor, single point] | 
O=C(O)c1c2c(nc3ccc(F)cc13)CCC2 |  | inactive: -4.07%
COc1cc2c(cc1OC)-c1c(OC)c(OC)cc3ccnc(c13)C2=O | inactive and inconclusive: 7.94 µM [inhibitor, partial curve] | 
CC1=NN(C(=O)c2ccncc2)C(=O)C1N=Nc1ccc2ccccc2c1 (stereo not drawn) | inconclusive: 100 µM [inhibitor, single point] | 
O=C1/C(=C/C=C/c2ccco2)SC(=S)N1c1ccc(O)cc1 | active: 7.94 µM | 
CCOc1ccccc1CNC(=O)C1CCN(S(=O)(=O)c2ccc3c(ccn3C)c2)CC1 |  | inactive: -5.92% [at 60.1 µM]
CCCC(=O)Nc1ccc(S(=O)(=O)Nc2cc(OC)nc(OC)n2)cc1 | inconclusive: 79.4 µM [inhibitor, single point] | 
Cc1cc(C(=O)NNC(=O)/C=C/c2ccco2)c(C)o1 | active: 22.4 µM | 
COc1ccc(-n2c(O)c(/C=N/NS(=O)(=O)c3cc(C)ccc3C)c3ccccc3c2=O)cc1OC | inconclusive: 28.2 µM [inhibitor, partial curve, poor fit] | 
CC(C)C(=O)Nc1ccc([N+](=O)[O-])c(C(F)(F)F)c1 | inactive | 
O=C(Nc1ccc(-c2cn3ccccc3n2)cc1)c1cccs1 | inconclusive: 89.1 µM [inhibitor, single point] | 
CC(=O)Nc1cc([N+](=O)[O-])cc(NC(C)=O)c1NC(C)=O |  | inactive: -19.3%
N#Cc1ccsc1NC(=O)C1=COCCO1 | inconclusive: 79.4 µM [inhibitor, partial curve] | 
Cc1ccc(N(CCCCN2C(=O)c3ccccc3C2=O)C(=O)c2cccc([N+](=O)[O-])c2)cc1 | inconclusive: 89.1 µM [inhibitor, partial curve, poor fit] | 
O=C(C[n+]1csc2ccccc21)c1ccc(O)c(O)c1 | active: 25.1 µM | 
CC(C)C[C@@H](CNCC(=O)[C@H](Cc1ccccc1)NC(=O)c1[nH]cnc1C(=O)N[C@@H](C)CN)NC(=O)c1nc[nH]c1C(=O)N[C@@H](C)C(=O)O |  | inactive: 1.99%
CSc1cccc(NC(=O)CN2C(=O)COc3ccc(Cl)cc32)c1 | inconclusive: 89.1 µM [inhibitor, single point] | 
CCCCOc1ccc(C(=O)Nc2cccc(-c3nc4cccnc4s3)c2)cc1 |  | inactive: -10.9%
